Data on 43 molecules can be found in ChEMBL document CHEMBL4888484, “Replenishing the malaria drug discovery pipeline: Screening and hit evaluation of the MMV Hit Generation Library 1 (HGL1) against asexual blood stage Plasmodium falciparum ,using a nano luciferase reporter read-out” (2022).

Broadly, the % Inhibition is the relative decrease from the control value, in per cent.

In all, about 150,000 compounds went through this assay and about 540 (0.36%) showed an effect of 50% or more. The list shows a part of the results.

This assay has as its system Plasmodium falciparum. Put plainly: Primary screen in NF54 nanoGlo assay, in single point, at 2uM, 72h; a lower Z score goes with more inhibition. Type of assay: functional, Erythrocyte. The note with it: timepoint 72 hour.
As for `Cc1csc(CN(C)S(=O)(=O)N2CCCCCC2)n1`, the “% Inhibition” value is listed as -8% and the Z score worked out at 1.47.
As for `CN(CC1(CO)CCC1)C(=O)CCN1CCCCC1=O`, the “% Inhibition” value is listed as -19% and the Z score was found to be 1.71.
`C[C@@H](C(=O)NCCCOc1ccc(F)cc1)n1ccnc1`: the “% Inhibition” value is reported as -15% and the Z score was 2.78.
As for `C[C@H](NCc1ncnn1CC(F)F)C1CCCC1`, the “% Inhibition” value was -9% and the Z score is on record as 1.56.
As for `CCN(CC)C(=O)Cn1nc2nc(Nc3ccccc3)ccn2c1=O`, the “% Inhibition” value is given as 2% and the Z score was -0.28.
`CC[C@H](NS(=O)(=O)c1c(C)noc1C)c1nccs1`: the “% Inhibition” value is on record as -17% and the Z score turned out to be 1.52.
The matching figures for `CCOc1ccc(CC(=O)N2CC3(C[C@@H](c4nnc(-c5ccccc5)o4)N(C)C3)C2)cc1`: 4% and -0.42.
The matching figures for `CCCn1nccc1S(=O)(=O)N1CCC(CCOC)CC1`: -17% and 1.55.
Take `COc1ccc(NC(=O)N2CCCS(=O)(=O)CC2)cc1OC(C)C`: the “% Inhibition” value is on record as 3% and the Z score is listed as -0.44.
For the molecule `CC(C)NC(=O)N[C@H]1CCN2C(=O)c3cc(-c4ccc(F)cc4F)ccc3NC(=O)[C@@H]2C1`, the “% Inhibition” value was -1% and the Z score was 0.12.
Regarding `CCc1nc(CN[C@@H](Cc2ccccn2)C2CC2)cs1`, the “% Inhibition” value is listed as -3% and the Z score is 0.41.
On the same counts, the results for `Cc1ccc(S(=O)(=O)NCC(=O)N2CCC[C@H]2c2ccc3c(c2)OCCCO3)cc1C` are 35% and -4.54.
`COCCCCN1CCN(C(=O)NCc2c(F)ccc(C)c2F)CC1`: the “% Inhibition” value worked out at 4% and the Z score is listed as -0.78.
As to `Cc1ccc(O)c(C(=O)N[C@H](c2nccn2C)C2CC2)c1`, the “% Inhibition” value was -5% and the Z score is listed as 0.92.
On the same counts, the results for `CCN(C[C@H](C)C#N)S(=O)(=O)c1c(F)c(F)cc(F)c1F` are 7% and -0.96.
On the same counts, the results for `CCCN1C[C@@H](NC(=O)c2cccc(-c3ccc4[nH]nc(N)c4c3)c2)CC1=O` are -18% and 2.68.
Consider `CCN(CC)c1nc2cc(C(=O)NC3CCCC3)ccc2c(=O)n1Cc1ccccc1`, for which the “% Inhibition” value is -3% and the Z score amounted to 0.6.
The matching figures for `CCOC(=O)c1cc(-c2cccc(NC(=O)c3ccc(C(=O)OC)cc3)c2)n(-c2cccc(C)c2)n1`: 5% and -0.65.
On the same counts, the results for `N#Cc1ccc(OC[C@@H](O)CN2CCC23CCOCC3)cc1` are -8% and 1.27.
The matching figures for `CC(C)C[C@H]1CC(=O)N(C(C)(C)C(=O)Nc2ccc3c(c2)OCO3)C1`: -1% and 0.08.
With `Cn1c(=O)c2c(ncn2Cc2cn(-c3ccc(F)c(Cl)c3)nn2)n(C)c1=O`, the “% Inhibition” value is recorded as -6% and the Z score amounted to 0.71.
The matching figures for `CC(C)c1nnc(CN2C(=O)C3CC3C2=O)s1` (stereo unspecified): -4% and 0.65.
On the same counts, the results for `CN1C[C@@H]2CCC[C@H]1CN(C(=O)CCCc1cn[nH]c1)C2` are -16% and 2.38.
With `O=C(Nc1nnc(-c2ccc(F)cc2F)o1)C1=COCCO1`, the “% Inhibition” value was -10% and the Z score was determined as 1.82.
On the same counts, the results for `O=C(N[C@H]1CC[C@H](Oc2ccccn2)CC1)c1ccc[nH]c1=O` are -1% and 0.18.
Consider `Cc1cccc2nc(CNC(=O)C3CCN(CC(F)F)CC3)n(C)c12`, for which the “% Inhibition” value is reported as -12% and the Z score came out at 1.91.
The matching figures for `Cc1nc2ncccc2cc1Br`: 0% and -0.07.
On the same counts, the results for `CC1CN(CC(O)Cn2cccn2)CCN1C1CCCC1` (stereo unspecified) are -8% and 1.14.
On the same counts, the results for `COCC(=O)N[C@H]1CCN2C(=O)c3ccccc3NC(=O)[C@@H]2C1` are -8% and 1.02.
As to `O=C([C@@H]1CCCc2[nH]ncc21)N1CC(c2cccc(Cl)c2)C1`, the “% Inhibition” value is on record as -3% and the Z score came out at 0.49.
On the same counts, the results for `O=C(CCc1ccc(OC(F)F)cc1)N1CCc2nc[nH]c(=O)c2C1` are 0% and 0.07.
On the same counts, the results for `O=S(=O)(c1cccnc1)N1CCC[C@]2(CC=CCC2)C1` are -2% and 0.21.
Turning to `Cc1cccc(OC[C@]2(CNC(=O)c3cc(C)on3)C[C@@H](O)[C@@H](O)C2)n1`, the “% Inhibition” value stood at 11% and the Z score was -1.3.
On the same counts, the results for `CN(C)c1cc(C#N)cc(C(=O)NCc2cc(C(F)(F)F)[nH]n2)c1` are -4% and 0.57.
The matching figures for `C[C@@H](c1cccs1)N(C)Cc1cc(CN2CCCC2)cs1`: -12% and 1.33.
The matching figures for `CC/C=C/CC(=O)N1CCC2(CCN(Cc3cccnc3)CC2)[C@@H](CO)C1`: -9% and 1.58.
In the case of `Cc1noc(C)c1CCC(=O)N[C@H]1CCCC[C@@H]1OCc1ccccc1`, the “% Inhibition” value came out at 5% and the Z score is recorded as -0.76.
Regarding `O=C(c1cnn[nH]1)N1CCCN(Cc2ccncc2)CC1`, the “% Inhibition” value is -13% and the Z score was 2.31.
On the same counts, the results for `O=C1NCCN2CCN(S(=O)(=O)c3ccccc3F)CC[C@@H]12` are 2% and -0.35.
`CCc1ccccc1S(=O)(=O)N[C@H]1CCN(c2ccc(C)cc2)C1=O`: the “% Inhibition” value came out at 0% and the Z score was -0.05.
`N#CC1(C#N)C(c2ccc(Cl)cc2)C1(C#N)C#N`: the “% Inhibition” value was determined as 44% and the Z score was -1.55.
Turning to `Cc1sc(-c2nc(-c3cccc(F)c3)no2)cc1S(=O)(=O)N1CCN(c2ccccc2)CC1`, the “% Inhibition” value is given as -4% and the Z score is reported as 0.5.
On to `O=C(NCc1ccccn1)c1ccc(S(=O)(=O)N2CCCCCC2)cc1`, for which the “% Inhibition” value is -5% and the Z score stood at 0.67.
